The RNAGym collection of RNA variant scans (doi:10.1073/pnas.2313332121)
This sample is rich in variants without activity.

B1: TPR 5TU (parent)
chain: GGAUCUUCUCGAUCUAACAAAAAAGACAAAUCUGCCACAAAGCUUGAGAGCAUCUUCGGAUGCAGAGGCGGCAGCCUUCGGUGGCGCGAUAGCGCCAACGUUCUCAACUAUGACACGCAAAACGCGUGCUCCGUUGAAUGGAGUUUAUCAUG

Variants of: B1
Test: polymerase ribozyme fitness, log enrichment relative to wild type (log ratio); higher = more active; in vitro selection for triplet polymerase activity
Method in brief: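 Streptavidin-bead capture of gel-excised extended constructs, followed by RT-PCR, closed a single triplicate in vitro selection round. That round began by annealing PCR-built, transcribed mutant libraries of each subunit of a heterodimeric triplet polymerase ribozyme with a biotinylated primer, the partner subunit and triplets, then incubating them frozen at −7 °C. After Illumina sequencing of inputs and outputs, genotypes needed ≥10 input reads and ≥1 read per output. Fitness is the base-2 logarithm of genotype enrichment over wild-type enrichment, using inverse-variance-weighted replicate averages.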

Polymerase ribozyme fitness (log ratio), ≤ -4.2:
GGAUCUUCUCGAUCUAACAAAAAAGGCAAAUCUGCCACAAAGCUUGAGAGCAUCUUCGGAUGCAGAGGCGACAGCCUUGGGUGGCGCGAUAGCGCCAACGUUCUCAACUAUGACACGCAAAUCGGGUGCUCCGUUGAAUGGAGUUUAUCAUG [A26G G71A C79G A122U C125G]
GGAUCUUCUCGAUCUAACAAAAAAGGCAAAUCUCCCACAAAGCUAGAGAGCAUUUUCGGAUGCAGAGGCGGCAGCCUUCGGUGGCGCGAUAGCGCUAACGUUCUCAACUAUGACACGCAAAACGCGUGCUCCGUUGAAUGAAGUUUAUCAUG [A26G G34C U45A C54U C96U G141A]
GGAUCUUCUCGAUCUAACAAAAAAGGCAAAUCUGCCACAAAGCUUGAAAACAUCUUCGGAUGCAGAGUUGGCAGCCUUCGGUGGCGCGAUAGCGCCAACGUUCUCAAUUAUGACACGCAAAACGGGUGCUCGGUUGAAUGGAGUUUAUCAUG [A26G G48A G50A G68U C69U C108U C125G C132G]
GGAUCUUCUCGAUCUAACAAAAAAGGCAAAUCUGCCACAAAGCUUGAGACCAUCAUCGGAUGCUGAGGCGGCAGCCUUCGGUGGCGCGAUAGCGCUAACGUUCUCAACUAUGACACGCAAAACGCGUGCUCCGUUGAAUGGAGUUUAUCAUG [A26G G50C U55A A64U C96U]
GGAUCUUCUCGAUCUAACAAAAAAGGCAAAUCUGCCACAAAGCUUGAGAGCAUCUUCGGAUGCAGAGGCGGAAGCCUUCGGUGGCGCAAUAGCGCCAAUGUUCUCAACUAUGACACGCAAAACGCGUGCUCCGUUGAAUGGAGUUUAUCAUG [A26G C72A G88A C99U]
GGAUCUUCUCGAUCUAACAAAAAAGGCAAAUCAGCCACAAAGCUUGAGAGCAUCUUCGGAUGCAGAGGCGGCAGCCUUCGGUGGCGCGAUAGCGCCAACGUUCUCAACUAUGACACGCAAAACGCGUGCUCCGCUGAAGGGAGUUUAUCAUG [A26G U33A U134C U139G]
GGAUCUUCUCGAUCUAACAAAAAAGGCAAAUCUGCCACAAAGCUUGAGAGCAUCUUCGGAUGCAGAGGCGGCAGCCUUCGGUGGCGCGAGAGCGCCAACGUUCUCAACUAUGACACGCAAAACGCGUGCUCCGUUGAAUGGAGUUUAUCAUG [A26G U90G]
GGAUCUUCUCGAUCUAACAAAAAAGGCAAAUCUGCCACAAAGCUUGAGAGCAUCAUCGGAUGCAGAGGCGGCAGCCUUCGGUGGCGCGAUAGUGCCAACGUUCUCAACUAUGACAGGCAAAACACGUGCUCCGUUGAAUGGAGUUUAUCAUG [A26G U55A C93U C116G G124A]
GGAUCUUCUCGAUCUAACAAAAAAGGCAAAACUGCCACAAAGCUUGAGAGCAUCUUCGGAUGCAGAGGCGGCAGCCUUCGGUGGCGCGAUAGCGCAAACGUUCUCAACUAUGACACGCAAAACGCGUGCUCCGUUGAAUGGAGUUUAUCAUG [A26G U31A C96A]
GGAUCUUCUCGAUCUAACAAAAAAGGCAAAUCUGCCACAAAGCUUGAGAGCAUCUUCGGAUGCAGAGGCGGCAGCCUUCGGUGGCGCGAUAGCGCCAACGUUCUCAACUAUGACACGCAAAACGCGUGCUCCGUUGAAUAGAGUUUAUCAUG [A26G G140A]
GGAUCUUCUCGAUCUAACAAAAAAGGCAAAUCUGCCACAAAGCUUGAGAGCAUCUUCGGAUGCAGAGGCGGCAGCCUUCGGCGGCGCGAUAGCGCCAACGUUAUCAACUAUGACACGCAAAACGGGUGCUCCGUUGAAUGGAGUUUAUCAUG [A26G U82C C103A C125G]
GGAUCUUCUCGAUCUAACAAAAAAGGCAAAUCUGCCACAAAGCUUGAGAGCAUCUUCGGAUGCAGAGGCGGCAGCCUUCGGUGGUGCGAUAGCGCCAACGUUCUCCACUAUGACACGCAAAACGCGUGCUCCGUUGAAUGGACUUUAUCAUG [A26G C85U A106C G143C]
GGAUCUUCUCGAUCUAACAAAAAAGGCAAAUCUGCCACAAAGCUUGAGAGCAUCUUCGGAUGCAGAGGCGGCAGCCUUUGGUGGCGCGAUAGUGACGACGUUCUCAACUAUGACACGCAAAGCGCGUGCUCCGUUGAAUGGAGUUUAUCAUG [A26G C79U C93U C95A A97G A122G]
GGAUCUUCUCGAUCUAACAAAAAAGGCAAAUCUGCCACAAAGCUUGACAGCAUCUUCGGAUGCAGAGGCGGCAGACUUCGGUGGGGCGAUAGCGCCAACGUUCUCAACUGUGACACGCAAAACGCGUGCUCCGUUGAACGGAGUUUAUCAUG [A26G G48C C75A C85G A110G U139C]
GGAUCUUCUCGAUCUAACAAAAAAGGCAAAUCUGCCACAAAGCUUGAGAGCAUCUUUGGAUGCAGAGGCGGCAGCCUGCGGUGGCUCGAUAGCGCCAACGUUCUCAGCUAUGACACGCAUAACGCGUGCUCCGUUGAAUGGAGUUUAUCAUG [A26G C57U U78G G86U A107G A120U]
GGAUCUUCUCGAUCUAACAAAAAAGGCAAAUCUGCCACAAAGCUUGAGACCAUCUUCUGAUGCAGAGGCGGCAGCCUUCGGUGGUGCGAUAGCGCCAACGUUCUCAACUAUGACACGCAAAACGCGUGCUCCGUUGAAUGGAGUUUAUCAUG [A26G G50C G58U C85U]
GGAUCUUCUCGAUCUAACAAAAAAGGCAAAUCUGCCACAAAGCUUGAGAGCAUCUUCGGAUGCAGAGGCGGCAGCCUUCGGUGGCGCGAUAGCGCCAACGUUCUCAACUAUGACACGCAAAACCCGUGCUCCGUUGACUGGAGUUUAUCAUG [A26G G124C A138C]
GGAUCUUCUCGAUCUAACAAAAAAGGCAAAUCUGCCACAAAGCUUGAGAGCAUCUUCGGAUGCAGAGGCGGUAGCCUGCGGUGGGGCGAUAGCGCCAACGUUCUCAACUAUGACACGCAAAACGCGUGCUCCGUUGAAUGGAGUUUAUCAUG [A26G C72U U78G C85G]
GGAUCUUCUCGAUCUAACAAAAAAGGCAAAUCUGCCACAAAGCUUGAGAGCAUCUUCGGAUGCAGAGCCGGCAGCCUUCGGUGGCGCGAUUGCGCCAACGUUCUCAACUAUGACACGCAAAACGCGUGCUCCGUUGAAUGGAGUUUAUCAUG [A26G G68C A91U]
